These results are taken from the GPR68 mutational scans of Howard et al. (2025).

The labels stand for the following.
B1: GPR68, Q15743 (parent)
chain: MGNITADNSSMSCTIDHTIHQTLAPVVYVTVLVVGFPANCLSLYFGYLQIKARNELGVYLCNLTVADLFYICSLPFWLQYVLQHDNWSHGDLSCQVCGILLYENIYISVGFLCCISVDRYLAVAHPFRFHQFRTLKAAVGVSVVIWAKELLTSIYFLMHEEVIEDENQHRVCFEHYPIQAWQRAINYYRFLVGFLFPICLLLASYQGILRAVRRSHGTQKSRKDQIQRLVLSTVVIFLACFLPYHVLLLVRSVWEASCDFAKGVFNAYHFSLLLTSFNCVADPVLYCFVSETTHRDLARLRGACLAFLTCSRTGRAREAYPLGAPEASGKSGAQGEEPELLTKLHPAFQTPNSPGSGGFPTGRLA

In series [1] the parent is B1. Kind of series: cAMP reporter score (Enrich2 score, wild type = 0); higher = more signal; HEK293T, FACS bins.
In series [2] the parent is B1. The series can be described thus: surface expression score (Enrich2 score, wild type = 0); higher = more signal; HEK293T, FACS bins.

Scores with a large standard error are left out. Not listed are two conditions whose scores span a narrow range. In variant names, del marks residues removed and ins residues inserted between the two positions. For part of these data: The data file names ogerin without a concentration.

As for C304K, the cAMP reporter score in series [1] (pH 5.5) was -0.18; in series [1] (pH 6, modulator: ogerin) it was -0.176; in series [1] (pH 6.5, modulator: ogerin) it was -0.539. The surface expression score in series [2] is -0.806.
For C304A, the cAMP reporter score in series [1] (pH 5.5) is 0.793; in series [1] (pH 6), -0.926; in series [1] (pH 6, modulator: ogerin), 0.954; in series [1] (pH 6.5, modulator: ogerin), 0.225. The surface expression score in series [2] came out at 1.01.
Turning to C304G, the cAMP reporter score in series [1] (pH 5.5) is -0.22; in series [1] (pH 6) it was -0.684; in series [1] (pH 6, modulator: ogerin), 0.648. Moreover, the surface expression score in series [2] came out at 0.222.
Regarding C304L, the cAMP reporter score in series [1] (pH 5.5) was determined as 0.596; in series [1] (pH 6.5, modulator: ogerin), 1.22. Moreover, in series [2], the surface expression score amounted to 0.663.
For L300_G302del, the cAMP reporter score in series [1] (pH 5.5) was -1.02; in series [1] (pH 6) it was -1.24; in series [1] (pH 6, modulator: ogerin) it was -1.65; in series [1] (pH 6.5, modulator: ogerin), -1.16. Also, the surface expression score in series [2] was 0.261.
For R295_D296insGS the same measures were -0.978, -0.08, -0.852, -1.08 and -0.243.
T292V: the cAMP reporter score in series [1] (pH 5.5) is 0.469; in series [1] (pH 6), 0.006; in series [1] (pH 6, modulator: ogerin), 0.281; in series [1] (pH 6.5, modulator: ogerin), 0.614. The surface expression score in series [2] is -0.028.
Taken in the same sequence, the figures for T292S were -0.419, -0.454, -0.115, -0.371 and 0.499.
With T292N, the cAMP reporter score in series [1] (pH 5.5) is 0.413; in series [1] (pH 6), -0.79; in series [1] (pH 6, modulator: ogerin) it was 0.255; in series [1] (pH 6.5, modulator: ogerin), -0.306. Further, the surface expression score in series [2] was 1.26.
As to T292Q, the cAMP reporter score in series [1] (pH 5.5) stood at 0.127; in series [1] (pH 6, modulator: ogerin), 1.26. The surface expression score in series [2] came to 0.282.
Regarding T292L, the cAMP reporter score in series [1] (pH 5.5) is 0.566; in series [1] (pH 6), -0.445; in series [1] (pH 6, modulator: ogerin), 0.414; in series [1] (pH 6.5, modulator: ogerin), 0.088. Besides, the surface expression score in series [2] was -0.985.
As to T292W, the cAMP reporter score worked out at 0.865 in series [1] (pH 5.5); 0.304 in series [1] (pH 6, modulator: ogerin); 0.603 in series [1] (pH 6.5, modulator: ogerin). Further, the surface expression score in series [2] came out at 0.568.
As to T292C, the cAMP reporter score in series [1] (pH 5.5) is 0.012; in series [1] (pH 6) it was -0.381; in series [1] (pH 6, modulator: ogerin), -0.581; in series [1] (pH 6.5, modulator: ogerin), -0.349. Besides, the surface expression score in series [2] is -0.035.
On to T292E, for which the cAMP reporter score in series [1] (pH 5.5) is 0.811; in series [1] (pH 6), -0.017; in series [1] (pH 6, modulator: ogerin), 0.346; in series [1] (pH 6.5, modulator: ogerin) it was -0.215. Also, the surface expression score in series [2] was 0.483.
Take T292R: the cAMP reporter score was 0.239 in series [1] (pH 5.5); -0.515 in series [1] (pH 6); 0.379 in series [1] (pH 6, modulator: ogerin); 0.544 in series [1] (pH 6.5, modulator: ogerin). Also, in series [2], the surface expression score is -0.512.
T292A: the cAMP reporter score is 0.592 in series [1] (pH 5.5); -0.069 in series [1] (pH 6); 0.31 in series [1] (pH 6, modulator: ogerin); -0.055 in series [1] (pH 6.5, modulator: ogerin). The surface expression score in series [2] is 0.003.
Take T292I: the cAMP reporter score is -0.454 in series [1] (pH 5.5); -0.446 in series [1] (pH 6); -1.48 in series [1] (pH 6.5, modulator: ogerin). The surface expression score in series [2] was -0.686.
For the variant T292D, the cAMP reporter score was -0.706 in series [1] (pH 5.5); -0.499 in series [1] (pH 6); -1.32 in series [1] (pH 6, modulator: ogerin); -1.71 in series [1] (pH 6.5, modulator: ogerin). For the same variant, the surface expression score in series [2] is 0.155.
Consider T292Y, for which the cAMP reporter score in series [1] (pH 5.5) was -0.234; in series [1] (pH 6), 1.66; in series [1] (pH 6, modulator: ogerin) it was -0.107; in series [1] (pH 6.5, modulator: ogerin), -0.683. The surface expression score in series [2] is -0.345.
For T292G the same measures were -0.256, -0.356, -0.209, -0.269 and 0.245.
Turning to T292H, the cAMP reporter score is -0.907 in series [1] (pH 5.5); -0.51 in series [1] (pH 6); -0.367 in series [1] (pH 6, modulator: ogerin); -1.62 in series [1] (pH 6.5, modulator: ogerin). In series [2], the surface expression score was -0.049.
T292M: the cAMP reporter score in series [1] (pH 5.5) was determined as 1.49; in series [1] (pH 6, modulator: ogerin), 0.936; in series [1] (pH 6.5, modulator: ogerin), 0.193. Further, the surface expression score in series [2] is 0.701.
T292K: the cAMP reporter score in series [1] (pH 5.5) is -0.848; in series [1] (pH 6), -0.677; in series [1] (pH 6, modulator: ogerin) it was -0.368; in series [1] (pH 6.5, modulator: ogerin), -1.06. Besides, the surface expression score in series [2] is -0.146.
As to T292P, the cAMP reporter score in series [1] (pH 5.5) is -1.28; in series [1] (pH 6), -0.67; in series [1] (pH 6, modulator: ogerin) it was -2.14; in series [1] (pH 6.5, modulator: ogerin) it was -0.855. For the same variant, the surface expression score in series [2] was -0.491.
Regarding T292F, the cAMP reporter score in series [1] (pH 5.5) is 0.141; in series [1] (pH 6) it was 1.48; in series [1] (pH 6, modulator: ogerin), 0.289; in series [1] (pH 6.5, modulator: ogerin), -0.494. Also, the surface expression score in series [2] worked out at 0.414.
Taken in the same sequence, the figures for T293_H294insGSG were -1.09, -0.806, -0.466, -0.847 and -0.248.
Regarding G302W, the cAMP reporter score in series [1] (pH 5.5) is 0.054; in series [1] (pH 6), -1.18; in series [1] (pH 6, modulator: ogerin), -0.68; in series [1] (pH 6.5, modulator: ogerin) it was -0.983. The surface expression score in series [2] was -1.18.
Consider G302A, for which the cAMP reporter score in series [1] (pH 5.5) was determined as 1.16; in series [1] (pH 6), 0.444; in series [1] (pH 6, modulator: ogerin), 1.31; in series [1] (pH 6.5, modulator: ogerin), 1.04. In addition, the surface expression score in series [2] was determined as 1.58.
For G302I, the cAMP reporter score was -0.216 in series [1] (pH 5.5); -0.348 in series [1] (pH 6); 0.037 in series [1] (pH 6, modulator: ogerin); -0.426 in series [1] (pH 6.5, modulator: ogerin). Further, in series [2], the surface expression score was -0.511.
G302Q: the cAMP reporter score in series [1] (pH 5.5) was determined as 1.03; in series [1] (pH 6) it was 0.304; in series [1] (pH 6, modulator: ogerin), 1.14; in series [1] (pH 6.5, modulator: ogerin), 1.13. Further, the surface expression score in series [2] is 1.31.
Turning to G302L, the cAMP reporter score in series [1] (pH 5.5) was 0.393; in series [1] (pH 6, modulator: ogerin) it was 0.365; in series [1] (pH 6.5, modulator: ogerin) it was -0.653. Also, the surface expression score in series [2] is -0.61.
Turning to G302N, the cAMP reporter score in series [1] (pH 5.5) was -0.357; in series [1] (pH 6), 0.391; in series [1] (pH 6, modulator: ogerin), 0.261; in series [1] (pH 6.5, modulator: ogerin) it was -0.229. Also, in series [2], the surface expression score was found to be 0.309.
